# Laboratory results as given in PubChem BioAssay AID2147 (National Center for Advancing Translational Sciences (NCATS), 2009).
# Among all 230,000 compounds or so, about 3,600 (1.6%) were called active. Inconclusive results, whose numbers are uncertain, are shown with a selection of clear calls. Calls come from the whole dose curve; as a rule, active = well fitted inhibition curve with a large enough effect (not every such curve was filed as active); inconclusive = small, poorly fitted or top-dose-only effect, or another doubt; inactive = no such curve, though single readings can be large or run the other way. Potencies beside an inconclusive call are fits to weak or partial responses and may not hold up.
# Molecular target: Lysine-specific demethylase 4E (Homo sapiens) (UniProt B2RXH2)
# Assay: qHTS Assay for Inhibitors of Human Jumonji Domain Containing 2E (JMJD2E)
# Conditions: JMJD2E catalytic domain, FDH-coupled NADH fluorescence (FDH is formaldehyde dehydrogenase); series mostly up to 57.1 µM; activity change, negative = inhibition: at the top concentration
# Note: nearly all actives have a fitted effect of over 50% in size.
# Potency is the fitted concentration of half-maximal effect; tags give direction and shape of the fitted curve.
# 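Throughout, for activity change, negative = inhibition: 0% = wells with enzyme and -100% = buffer wells without enzyme.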
# Chain of UniProt B2RXH2 (B2RXH2 whole entry, looked up, the tested form may be a part): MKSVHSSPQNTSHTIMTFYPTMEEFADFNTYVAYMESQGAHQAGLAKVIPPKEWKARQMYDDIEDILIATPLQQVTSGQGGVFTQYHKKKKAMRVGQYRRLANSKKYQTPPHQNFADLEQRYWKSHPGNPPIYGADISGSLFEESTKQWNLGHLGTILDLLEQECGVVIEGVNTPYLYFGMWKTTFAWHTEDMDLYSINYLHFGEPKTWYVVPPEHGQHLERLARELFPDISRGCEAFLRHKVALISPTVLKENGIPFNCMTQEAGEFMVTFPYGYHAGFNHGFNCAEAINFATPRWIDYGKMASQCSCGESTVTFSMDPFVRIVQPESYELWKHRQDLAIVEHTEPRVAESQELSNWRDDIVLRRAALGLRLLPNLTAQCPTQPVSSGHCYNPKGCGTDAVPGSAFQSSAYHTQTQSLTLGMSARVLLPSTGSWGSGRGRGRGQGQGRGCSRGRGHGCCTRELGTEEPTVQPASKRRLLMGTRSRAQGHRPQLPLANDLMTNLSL
SMILES,"activity change, negative = inhibition",Potency
CC(=O)Oc1ccc2c(c1)CCC1C2CC[C@]2(C)C(=O)CCC12 (some centres undefined),inactive: 12.7%,
COc1ccccc1NC(=O)c1ccccc1NC(=O)c1cc(Cl)ccc1NC(=O)c1ccco1,,"inconclusive: 31.6 µM [inhibitor, partial curve]"
CCn1c(C)nc2cc(-c3nnc(-c4c(-c5ccccc5)noc4C)o3)ccc21,,"inconclusive: 28.2 µM [inhibitor, partial curve]"
CCN1CCN(C(=O)c2ccc(Cn3c(=O)[nH]c4cc(OC)c(OC)cc4c3=O)cc2)CC1,,"inconclusive: 35.5 µM [inhibitor, partial curve]"
COc1cc2cc(CN(Cc3cccnc3)C(=O)Nc3ccccc3F)c(=O)[nH]c2cc1OC,,"inconclusive: 31.6 µM [inhibitor, partial curve]"
CCCCCOC(=O)c1c(N)n(CCOC)c2nc3ccccc3nc12,,"inconclusive: 31.6 µM [inhibitor, partial curve]"
COc1cc(OC)cc(-c2n[nH]c(=S)n2-c2ccc3c(c2)OCCO3)c1,,"inconclusive: 31.6 µM [inhibitor, single point]"
CCCn1c(NC(=S)Nc2ccccc2)nc2ccccc21,inactive: -14.2%,
O=c1c2ccccc2c(/C=N/n2cnnc2)c(O)n1-c1ccccc1F,,"inconclusive: 35.5 µM [inhibitor, single point]"
CCOC(=O)N1CCN(c2ncnc3c2oc2nc(C(C)C)c4c(c23)CCC4)CC1,inactive: 2.38%,
COCCCNC(=S)N1CCCN(c2nc3c(C)c(C)ccc3cc2C#N)CC1,,"inconclusive: 28.2 µM [inhibitor, single point]"
CCOC(=O)c1c(N)sc(C(=O)OCCOC)c1C,inactive: -3.79%,
COc1cc(OC)c2c(-c3ccccc3)cc(=O)oc2c1C(CC(=O)N1CCCC1)c1ccc2c(c1)OCO2 (centres undefined),,"inconclusive: 35.5 µM [inhibitor, single point]"
COc1ccc(-c2cn3cccc(C)c3n2)cc1Br,,"inconclusive: 31.6 µM [inhibitor, single point]"
CCSc1nnc(Cc2cc(=O)[nH]c(=O)[nH]2)n1-c1cccc(C)c1,inactive: 1.06%,
O=[N+]([O-])c1ccc(O)c(/C=N/NC2=NS(=O)(=O)c3ccccc32)c1,,active: 22.4 µM
COc1ccc(S(=O)(=O)N=Nc2c(O)[nH]c3ccccc23)cc1,,"inconclusive: 39.8 µM [inhibitor, single point]"
Cc1ccc(NC(=O)Cc2c(O)c3ccccc3[nH]c2=O)c(C)c1,,"inconclusive: 31.6 µM [inhibitor, single point]"
O=[N+]([O-])c1ccc(C2Oc3ccccc3C3CC(c4ccccc4)=NN32)s1 (centres undefined),,"inconclusive: 31.6 µM [inhibitor, single point]"
